Data as given in PubChem BioAssay AID344 (DTP/NCI, 2004).
Toxic doses and inconclusive results are not listed. Certain results were filed several times, with different values. This list holds those alone. An entry can have further records. Values given together do not match, cause unknown; they may come from other doses, times, organisms or constructs than stated.

Tested on: mice, LPC-1 plasma cell tumor ip, median survival T/C
Assay: NCI In Vivo Anticancer Drug Screen. Data for tumor model Lieberman Plasma Cell No. 1 (LPC-1) (intraperitoneal) in unknown mice
Details: endpoint: median survival time, higher = longer survival
Experimental: The antitumor activity of compounds was measured in mice bearing transplantable tumors. Survival or tumor size were measured and the results are expressed as the measurement made in the treated group (T) divided by the measurement made in the vehicle treated control group (C). The tumor model used in this assay is Lieberman Plasma Cell No. 1 (LPC-1) (intraperitoneal) in unknown mice

In the case of `O=P1(N(CCCl)CCCl)NCCCO1` (stereo not drawn), the T/C (dose: 25.0 mg/kg/injection, schedule: Q01DX009 (ip), vehicle: saline) is reported as 119 % of control and 167 % of control.
With `CS(=O)(=O)OCCN(CCOS(C)(=O)=O)c1ccc(/C=N/Nc2ncnc3nc[nH]c23)cc1` the T/C (dose: 80.0 mg/kg/injection, schedule: Q01DX028 (sc), vehicle: other) was 105 % of control and 156 % of control and the T/C (dose: 270.0 mg/kg/injection, schedule: Q01DX028 (sc), vehicle: other) was 115 % of control and 155 % of control.
